Experimental data published in PMC6919601, “Identification of Plasmodium dipeptidyl aminopeptidase allosteric inhibitors by high throughput screening” (PLoS ONE, 2019).
About 230 (0.21%) of roughly 110,000 compounds showed an effect of 50% or more. The list shows a part of the results.

target: DPAP1 (Plasmodium falciparum, UniProt Q8IIJ9); assay: primary screen, percent inhibition; read by cleavage of a fluorogenic dipeptide substrate; higher = more effect of the substance; parameters: species or system P. falciparum D10 trophozoite lysates; single well
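Further: 30 min substrate incubation versus DMSO and 10 µM JCP410 controls.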

Sequence of DPAP1 (Q8IIJ9 whole entry, looked up): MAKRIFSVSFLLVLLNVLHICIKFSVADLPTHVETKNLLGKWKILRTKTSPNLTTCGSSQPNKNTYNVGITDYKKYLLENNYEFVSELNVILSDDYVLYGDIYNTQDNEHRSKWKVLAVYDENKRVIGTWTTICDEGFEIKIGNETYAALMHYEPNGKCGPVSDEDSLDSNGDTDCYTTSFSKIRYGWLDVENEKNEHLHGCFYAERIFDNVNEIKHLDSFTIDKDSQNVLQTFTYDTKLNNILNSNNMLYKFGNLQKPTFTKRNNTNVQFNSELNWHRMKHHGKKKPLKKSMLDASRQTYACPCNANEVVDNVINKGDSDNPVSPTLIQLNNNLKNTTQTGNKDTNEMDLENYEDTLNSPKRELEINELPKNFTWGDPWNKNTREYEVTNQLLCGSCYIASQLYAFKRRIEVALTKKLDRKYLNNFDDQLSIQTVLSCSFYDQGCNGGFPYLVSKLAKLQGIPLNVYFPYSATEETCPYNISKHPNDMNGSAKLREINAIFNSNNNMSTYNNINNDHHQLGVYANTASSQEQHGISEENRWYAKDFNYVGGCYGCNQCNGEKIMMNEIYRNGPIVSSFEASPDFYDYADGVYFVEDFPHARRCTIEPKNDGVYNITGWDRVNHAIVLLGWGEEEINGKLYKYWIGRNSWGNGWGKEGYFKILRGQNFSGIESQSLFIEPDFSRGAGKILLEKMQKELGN

Compound | % Inhibition @ 10 uM
Cc1nc2[nH]c(-c3ccccc3)nc2cc1Br | 8.38%
COCc1[nH]nc2c1C1(CCN(Cc3ccccc3)CC1)C(C#N)=C(N)O2 | -4.43%
CC(NC(=O)CCn1c(=O)c2cccn2c2cccnc21)c1ccccc1 (centres unmarked) | -1.28%
O=C(c1ccncc1)N(c1ccc2oc3c(c2c1)CCCC3)S(=O)(=O)c1cccs1 | 3.26%
CCC1CCCCN1CCCNC(=O)c1cc2c(O)nc3ccccc3c2s1 (centres unmarked) | 2.9%
COc1ccc(OCCCCc2c(C)n[nH]c2C)cc1 | -1.41%
CC1CN(C(C)(C)C)CC(O)(c2ccccc2)C1 (centres unmarked) | -3.26%
O=C(NC1CC1)c1ccc(Cn2cnnn2)cc1 | -0.703%
COCCCNC(=O)CN1CCN(Cc2ccccc2Cl)C1=O | -2.99%
Cc1ccc(C(=O)Nc2ccc3c(c2)oc2ccccc23)cc1 | -4.26%
CC(C)(C)NS(=O)(=O)c1ccc(OCC(=O)NCC2CCCO2)cc1 (centres unmarked) | -4.15%
CCN(CC)CC(O)COc1ccc(OCC(O)CN(CC)CC)cc1 (centres unmarked) | 23.6%
CCCC(=O)NCn1nnc(-c2ccc(Cl)cc2)n1 | 0.686%
COC(=O)C1=C(C)NC(=O)/C1=C\c1cc(C)n(-c2cc(Cl)cc(Cl)c2)c1C | 1.84%
O=S(=O)(c1ccc(-n2cnnn2)cc1)N1CCC(N2CCCCC2)CC1 | -2.4%
O=C(Nc1cc(Cl)ccc1Cl)c1ccc(N2C(=O)C3C4C=CC(C4)C3C2=O)cc1 (centres unmarked) | -0.0619%
CCOc1ccccc1CNCc1cccs1 | 1.84%
Oc1ccc(-c2ccco2)nn1 | 0.635%
Cc1cccc(NC(=O)c2ccccc2[N+](=O)[O-])c1C | 0.247%
O=C(c1ccc(-c2ccccc2)cc1)N1CCN(c2ccccc2)CC1 | 6.65%
c1ccc(Cn2c3ccccc3c3nc4ccccc4nc32)cc1 | -2%
Cc1cc(C)c2nc(-c3ccc(C)o3)cc(C(=O)O)c2c1 | 0.431%

Compound | % Inhibition @ 10 uM
COc1cc(-c2nc(O)c3c(n2)Oc2c(cc(Br)cc2OC)C3)ccc1O | 0.351%
CC(C)c1ccc(-n2nnc(-c3nc(-c4cccs4)no3)c2N)cc1 | 4.23%
Cc1nc2cc(S(=O)(=O)N3CCC(C(=O)NCc4ccoc4)CC3)ccc2n1C1CCCC1 | -3.53%
CC1CCCCN1CCNC(=O)Cn1nc(-c2ccc(Cl)cc2)ccc1=O (centres unmarked) | -1.79%
CCOCCCNC(=O)C(NC(=O)Cc1c[nH]c2ccccc12)c1ccccc1 (centres unmarked) | 3.51%
COc1ccc(OC)c(Nc2nc(-c3ccc(OC)c(OC)c3)cs2)c1 | -1.26%
C=CCOC(=O)NC1CCS(=O)(=O)C1 (centres unmarked) | 0.0539%
N#Cc1ccc(Br)cc1/C=C/C(=O)O | 5.98%
Fc1ccc(-n2c(S)nnc2C23CC4CC(CC(C4)C2)C3)cc1 | 3.27%
CCOC(=O)c1c(C)n(-c2ccc(OC)cc2)c2c1cc(O)c1ccccc12 | -2.26%
CCc1ccccc1N(CC(=O)NC1CC2CCC1C2)S(=O)(=O)c1ccccc1 (centres unmarked) | 0.0504%
Cc1cccc(CN2C(=O)N/C(=C/c3cc(C)n(-c4ccccn4)c3C)C2=O)c1 | -12.5%
COc1ccc(C2=NN3C(C2)c2cc(OC)ccc2OC3(C)C)cc1 (centres unmarked) | 43.8%
COC(=O)c1ccccc1NC(=O)C(C)Oc1ccc(F)cc1 (centres unmarked) | 5.79%
COc1ccc(OC)c(/C=C(/C#N)c2nc(-c3cc4ccccc4oc3=O)cs2)c1 | 2.7%
CC(=O)N1c2ccccc2N(CC(=O)c2ccccc2)C(=O)CC1C (centres unmarked) | 2.27%
COc1ccc(-c2cc3ccccn3c2C)cc1OC | 1.72%
COC(=O)c1ccc2c(c1)C(=O)/C(=C/c1cccs1)O2 | -1.37%
COc1ccc(CCNC(=O)c2cc(S(=O)(=O)N3CCCCC3)c[nH]2)cc1OC | -5.3%
COc1ccc(N(Cc2ccc(F)cc2)C(=O)c2ccco2)cc1 | 0.162%
Cc1ccccc1Cn1c(CCCNC(=O)c2ccco2)nc2ccccc21 | 3.74%
CC(C)(O)C#Cc1ccc(C(=O)N2CCN(C/C=C/c3ccccc3)CC2)cc1 | 1.37%

Compound | % Inhibition @ 10 uM
O=C(CN1Cc2ccccc2C1=O)NCCc1ccccc1 | -2.96%
COCCNC(=O)c1ccc(CNS(=O)(=O)c2cccc(C(F)(F)F)c2)cc1 | 3.56%
Cc1ccc(C(=O)N/C(=C\c2cccnc2)C(=O)NCCc2c[nH]c3ccccc23)cc1 | 8.37%
COC(=O)c1c[nH]n2c(NC3CCC(C)CC3)c(-c3ccc(OC)c(OC)c3)nc12 (centres unmarked) | -3.94%
CCOc1cccc(-c2nnc(N)s2)c1 | -5.7%
Cc1ccccc1OCC(=O)N1CCC(C)CC1 | -9.82%
CC(C)C[C@H](NC(=O)c1ccc(Cl)c(Cl)c1)C(=O)NCC#N | 4.45%
O=C1/C(=C\c2ccc(F)cc2)N2CCC1CC2 | -10.8%
CC1=C(C(=O)Nc2ccccc2)C(c2ccccc2)n2c(s/c(=C/c3ccoc3)c2=O)=N1 (centres unmarked) | -6.27%
Cc1cc(C)c2c3c(sc2n1)C(c1ccncc1)C(C#N)=C(N)O3 (centres unmarked) | 3.99%
O=C(Cn1nnc2sc3c(c2c1=O)CCCC3)NCCc1ccccc1 | 0.561%
Cc1ccc(CS(=O)Cc2ccc(C(=O)N3CCN(Cc4ccccc4)CC3)o2)cc1 (centres unmarked) | -1.28%
Cc1cc2nc(O)c(O)nc2cc1S(=O)(=O)NCCc1ccccc1 | 4.17%
COc1ccc2[nH]c(C)c(CCNC(=O)c3ccc(C)cc3)c2c1 | -3.65%
CC[C@H](NC(=O)[C@H](CC1CCCCC1)NC(=O)OCc1ccccc1)C(=O)CS(=O)(=O)c1ccccc1 | 4.45%
Cn1cc(CC(=O)NC2CCCCCC2)c2ccccc21 | -6.91%
CC(=O)Nc1c(-c2ccccc2)nc2c(C)cccn12 | 1.43%
CCCOc1ccc(N2C(=O)CC(N3CCC(C)CC3)C2=O)cc1 (centres unmarked) | 4.08%
Cc1nnc2c3c4c(sc3nc(C)n12)CCC4 | -2.07%
CCOC(=O)c1cnn(C(C)(C)C)c1C1CCN(C(=O)OC(C)(C)C)CC1 | -2.83%
C=CCOc1cccc(CNCc2cccnc2)c1 | -5.32%
